Measurements taken from patent US12338279B2, “Selective and potent inhibitory antibodies of myostatin activation” (SCHOLAR ROCK, INC., priority 2022, dated 2025).

What was measured:
[1] = tested on: dexamethasone-induced muscle atrophy in C57BL6 male mice; experiment: Dexamethasone-induced muscle atrophy mouse model; assay type: in vivo
Procedure, shortened: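 Male C57BL6 mice (13-14 weeks, n=8) received dexamethasone in drinking water at 2.5 mg/kg for 14 days. Antibodies, PBS or human IgG were dosed on days 1 and 7, at 0.3–10 mg/kg in the dose-ranging study. Lean/muscle mass was measured by qNMR, with gastrocnemius and quadriceps weights and serum myostatin at day 14; ANOVA with Dunnett's test.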

circulating leptin = experiment: Circulating leptin (U-PLEX Metabolic Hormones Combo 1), Example 6; assay type: in vivo, mouse; conditions: for Leptin Day 64 (circulating leptin): 60%/45% high fat diet
Procedure: Circulating leptin was measured using the U-PLEX Metabolic Hormones Combo 1 (mouse) according to manufacturer's instructions (Meso Scale Diagnostics, #K15306K-2). As expected, circulating leptin was higher in animals fed the high fat diet than animals fed a standard chow.

[2] = tested on: free latent myostatin in serum; experiment: Serum free latent myostatin (not bound by antibody); assay type: in vivo, mouse
Source text: Serum clearance: As used herein, the term “serum clearance” or “clearance” refers to a relative pharmacokinetic/pharmacodynamic behavior pertaining to changes in serum concentrations (e.g., circulating levels) of an analyte (e.g., target protein or protein complex) over time. When the analyte being measured accumulates in the serum, it is said to have slow clearance. By contrast, when the analyte being measured is removed (“cleared”) rapidly from the serum, it is said to have fast clearance. Serum clearance in vivo may occur via multiple mechanisms, including, for example, targeted degradation, Fc-mediated internalization, etc. For example, serum clearance of circulating myostatin may be measured with an assay for determining binding of an antibody to free myostatin in serum (circulating myostatin that is not bound by the antibody). Such an assay may involve immobilizing a biotinylated capture antibody known to bind pro and latent myostatin, before adding a sample comprising myostatin to test the ability of the antibody to bind to the free myostatin and adding a detection antibody with a detectable marker.
In another embodiment, a pharmacodynamic assay, can be performed by measuring the binding of the antibodies to serum free latent myostatin (i.e., circulating latent myostatin that is not bound by the antibody). […]
Male 19 week old C7/BL6 mice fed a high fat diet to induce obesity (DIO-B6-M mice, were evaluated for the effect of the combination of antibody and semaglutide on the exposure of the antibody to the target antigen (PK) and the total myostatin serum level (PD), as shown in Table 25. Animals were dosed with antibody intraperitoneally on days 0, 7, and 14 and were dosed with semaglutide subcutaneously daily throughout the study. Exposure of the antibody to immobilized promyostatin was determined by ELISA. Total serum myostatin was also measured by ELISA. The study concluded on day 22, when terminal bleeds were obtained.

B1: Ab109: anti-pro/latent myostatin antibody; CDRs in Tables 2d-f, variable domains Table 3, chains Table 4 (antibody)
heavy: EVQLVESGGGLVQPGGSLRLSCAASGFTFSSYGMSWVRQAPGKGLELVASFTGSGGTYYPDSVKGRFTISRDNAKNSLYLQMNSLRAEDTAVYYCARDLLIRFLEWSHYYGMDVWGQGTTVTVSSASTKGPSVFPLAPCSRSTSESTAALGCLVKDYFPEPVTVSWNSGALTSGVHTFPAVLQSSGLYSLSSVVTVPSSSLGTKTYTCNVDHKPSNTKVDKRV[human IgG4 Fc with S228P (EU numbers) left out]
light: DIVMTQSPLSLPVTPGEPASISCRSSQSLLHSSGHNFLHWYLQKPGQSPQLLIYEVSNRVSGVPDRFSGSGSGTDFTLKISRVEAEDVGVYYCMQQTQYPPTFGGGTKVEIKRTVAAPSVFIFPPSDEQLKSGTASVVCLLNNFYPREAKVQWKVDNALQSGNSQESVTEQDSKDSTYSLSSTLTLSKADYEKHKVYACEVTHQGLSSPVTKSFNRGEC
body weight of dexamethasone treated mice ([1]; 3 mg/kg/day, FIG. 6A, FIG. 9A): maintained the body weight of the dexamethasone treated mice to a greater extent than Ab2 | lean mass by qNMR in dexamethasone treated mice ([1]; 3 mg/kg/day, FIG. 6B, FIG. 9B): preserved the lean mass of the mice to a greater degree than the 10 mg/kg/day Ab2 treatment | gastrocnemius weight in dexamethasone treated mice ([1]; 3 mg/kg/day, FIG. 6C, FIG. 9C): highly effective in preserving gastrocnemius weight | quadriceps weight in dexamethasone treated mice ([1]; FIG. 9D): highly effective in preserving quadriceps weight | body weight loss in dexamethasone treated mice ([1]; doses 0.3-10 mg/kg on day 1 and day 7, dose as in the words, FIG. 7A, FIG. 10A): prevented dexamethasone-induced weight loss; also recorded: the 1 mg/kg dose of Ab109 was equally as effective as the 10 mg/kg dose of Ab 2; also recorded: efficacious in preserving body weight; also recorded: improved efficacy compared to Ab2 at 10, 3, and 1 mg/kg | lean mass by qNMR in dexamethasone treated mice ([1]; doses 0.3-10 mg/kg, dose as in the words, FIG. 7B, FIG. 10B): attenuated the loss of lean mass; also recorded: greater efficacy at both 3 mg/kg and 10 mg/kg compared to either Ab2 or Ab133 at 3 mg/kg and 10 mg/kg; also recorded: At doses of both 10 mg/kg and 3 mg/kg, Ab109 showed greater efficacy in preserving lean mass than Ab2 | gastrocnemius muscle weight in dexamethasone treated mice ([1]; doses 0.3-10 mg/kg, dose as in the words, FIG. 7C, FIG. 10C): more efficacy at all four doses as compared to Ab2 at 3 mg/kg | quadriceps muscle weight in dexamethasone treated mice ([1]; doses 0.3-10 mg/kg, dose as in the words, FIG. 7D, FIG. 10D): more efficacy at all four doses as compared to Ab2 at 3 mg/kg | Leptin Day 64 (circulating leptin) (circulating leptin; Ab109 + semaglutide 0.04 mg/kg day 7-35 (regain arm)): 21.71 ng/mL | Leptin Day 64 (circulating leptin) (circulating leptin; Ab109 + semaglutide 0.04 mg/kg day 7-63): 12.4 ng/mL | circulating leptin (circulating leptin; treatment arm as in the words, FIG. 14K): decreased circulating leptin in the semaglutide withdrawal group | free latent myostatin levels in the serum ([2]; 2 mg/kg and 20 mg/kg doses, FIG. 17): reduce free latent myostatin levels in the serum | serum free latent myostatin (not bound by antibody) ([2]; 0.1 to 3 mg/kg, 22 days, presence or absence of semaglutide, FIG. 16C): reduced below the level of quantitation

Entries after “also recorded” stand apart in the source; their conditions may differ.
